Reference: paper PMC8242001
Changes are numbered by the printed parent chain. These are yes or no findings as the source states them, for the method shown. In cells and extracts the contact can be indirect. Some entries that bind do so weakly or less than the wild type. Tags and fused reporters may be left off the sequences shown. Values belong to the binder of their own block, whether it stands above or below them.

Columns and labels:
[1] = target: T1, Caf20-FLAG (wild type CAF20, C-terminally tagged with two copies of the Flag epitope) (S. cerevisiae) (UniProt P12962); experiment: co-IP; Caf20-FLAG held on anti-Flag M2 magnetic beads from yeast total cell extract; IP lysis buffer 30 mM HEPES-KOH pH 7.5, 10% glycerol, 1 mM TCEP with 100 mM KCl (low salt); 1-2 h at 4 °C; eluted with 3X Flag peptide; western blot for native eIF4E
T1 sequence: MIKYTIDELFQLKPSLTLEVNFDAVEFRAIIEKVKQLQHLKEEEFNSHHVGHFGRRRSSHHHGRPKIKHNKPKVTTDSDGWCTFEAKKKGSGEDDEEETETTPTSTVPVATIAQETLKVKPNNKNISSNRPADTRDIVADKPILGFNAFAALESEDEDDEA

[2] = target: T2, Caf20^m2-FLAG (Y4A, L9A) (S. cerevisiae) (UniProt P12962); experiment: as above
T2 sequence: T1 sequence with Y4A, L9A

[3] = target: T3, Caf20^∆A-FLAG (S. cerevisiae) (UniProt P12962); experiment: as above
T3 sequence: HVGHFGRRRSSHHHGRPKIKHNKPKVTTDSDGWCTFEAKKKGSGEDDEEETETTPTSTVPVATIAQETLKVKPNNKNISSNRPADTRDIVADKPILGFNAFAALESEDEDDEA

[4] = target: T1, Caf20-FLAG (wild type CAF20, C-terminally tagged with two copies of the Flag epitope) (S. cerevisiae); experiment: co-IP; as the low-salt Flag IP, but with high salt buffer (1 M KCl); Caf20-FLAG held on anti-Flag M2 magnetic beads from yeast total cell extract; eluted with 3X Flag peptide; western blot for native eIF4E
[5] = target: T2, Caf20^m2-FLAG (Y4A, L9A) (S. cerevisiae); experiment: as above
[6] = target: T3, Caf20^∆A-FLAG (S. cerevisiae); experiment: as above
[7] = target: T1, Caf20-FLAG (wild type CAF20, C-terminally tagged with two copies of the Flag epitope) (S. cerevisiae); experiment: cross-linking; whole cell extracts from Caf20-FLAG cells treated with BMH, MBS or DSS (0.5, 1 or 2 mM); SDS-PAGE and western blots with Flag, eIF4G and eIF4E antibodies
[8] = target: T1, Caf20-FLAG (wild type CAF20, C-terminally tagged with two copies of the Flag epitope) (S. cerevisiae); experiment: cross-linking; MBS on cell extracts from untagged, Flag-, Myc- and TAP-tagged Caf20 strains; shift of the major cross-linked bands compared between the tags
[9] = target: T1, Caf20-FLAG (wild type CAF20, C-terminally tagged with two copies of the Flag epitope) (S. cerevisiae); experiment: co-IP; Caf20-FLAG plasmids expressed in a strain whose endogenous CAF20 is tagged with 9xMyc; αFlag IP, pellets probed for Caf20-myc

binding [1]: binds
binding [2]: no binding
binding [3]: no binding
binding [4]: binds
binding [5]: no binding
binding [6]: no binding
binding [7]: binds
B1: eIF4E (native, yeast) (protein, UniProt P07260 1-213)
chain: MSVEEVSKKFEENVSVDDTTATPKTVLSDSAHFDVKHPLNTKWTLWYTKPAVDKSESWSDLLRPVTSFQTVEEFWAIIQNIPEPHELPLKSDYHVFRNDVRPEWEDEANAKGGKWSFQLRGKGADIDELWLRTLLAVIGETIDEDDSQINGVVLSIRKGGNKFALWTKSEDKEPLLRIGGKFKQVLKLTDDGHLEFFPHSSANGRHPQPSITL

binding [8]: no binding
binding [9]: no binding
B2: Caf20-FLAG (wild type CAF20, C-terminally tagged with two copies of the Flag epitope) (protein, UniProt P12962 1-161)
chain: T1 sequence
